In paper PMC5892938:
The other results are listed elsewhere or left out. At the low end of the ranking, values are background and their order means little.
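Also: DESeq read counts versus GST-SBP nonspecific binding control pulldown.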

These sequences were tested against GST-SBP-SLBP (stem-loop binding protein) (UniProt Q14493) (assay: targeted RNA Bind-n-Seq). Conditions: RBNS binding buffer: 25 mM Tris pH 7.5, 150 mM KCl, 3 mM MgCl2, 0.1% Tween, 0.5 mg/mL BSA, 1 mM DTT; 27 nM protein, 750 pM RNA pool; temperature not stated; high values mean tight binding.
With “GGUCACGUCUCAAUCAACUCAUUCGCAGGAGUUUACUCCUGGUUAUUCAACAGCUCGCAGUCAAG” the binding signal (log2 fold change) was -0.111.
For “GGUCACGUCUCAAUCAACUCAAUCUCCAGGGAAAUCCCUGGCAUUUUCAACAGCUCGCAGUCAAG”, the binding signal (log2 fold change) was 0.0585.
Sequence “GGUCACGUCUCAAUCAACUCAUCUCCAGGAGUUUGCUCCUGCUUUCUCAACAGCUCGCAGUCAAG” has a binding signal (log2 fold change) of 0.191.
“GGUCACGUCUCAAUCAACUCAAACGAGGGGGGGAAAACCCCUUUACCCUCUACCUCAACAGCUCGCAGUCAAG” gave a binding signal (log2 fold change) of 0.124.
Work on “GGUCACGUCUCAAUCAACUCAUCCUCCAGGGAAAACCCUGGCUUAUUCAACAGCUCGCAGUCAAG” yielded a binding signal (log2 fold change) of -0.175.
With “GGUCACGUCUCAAUCAACUCACACGAGGGGGGGAAAACCCCUUUACCCUCAUCCUCAACAGCUCGCAGUCAAG” the binding signal (log2 fold change) was 0.453.
Sequence “GGUCACGUCUCAAUCAACUCAUCCCCCAGGGAAAUCCCUGGCUAUCUCAACAGCUCGCAGUCAAG” has a binding signal (log2 fold change) of -0.029.
For “GGUCACGUCUCAAUCAACUCAUCUCCCAGGGAAAGCCCUGGCUAUCUCAACAGCUCGCAGUCAAG”, the binding signal (log2 fold change) was -0.0945.
In the case of “GGUCACGUCUCAAUCAACUCAAUCUCAGGAGUUUUCUCCUGCUUAGUCAACAGCUCGCAGUCAAG”, the binding signal (log2 fold change) is reported as 0.101.
“GGUCACGUCUCAAUCAACUCUACUUCCAGGGAAACCCCUGGUUAACUCAACAGCUCGCAGUCAAG” was tested, and the binding signal (log2 fold change) was 0.28.
Work on “GGUCACGUCUCAAUCAACUCUACUUCCAGGGAAAGCCCUGGUUUUUUCAACAGCUCGCAGUCAAG” yielded a binding signal (log2 fold change) of -0.408.
With “GGUCACGUCUCAAUCAACUCUAUCUCCAGGGAAAACCCUGGCUAAUUCAACAGCUCGCAGUCAAG” the binding signal (log2 fold change) was 0.158.
“GGUCACGUCUCAAUCAACUCUCACGAGGGGGGGAAAACCCCUUUACCCUCUCAAUCAACAGCUCGCAGUCAAG” gave a binding signal (log2 fold change) of -0.16.
Work on “GGUCACGUCUCAAUCAACUCCAACGAGGGGGGGAAAACCCCUUUACCCUCAUAAUCAACAGCUCGCAGUCAAG” yielded a binding signal (log2 fold change) of 0.0269.
“GGUCACGUCUCAAUCAACUCUAUCUCAGGAGUUUUCUCCUGUUAAUUCAACAGCUCGCAGUCAAG” was tested, and the binding signal (log2 fold change) was -0.0443.
For “GGUCACGUCUCAAUCAACUCAUCCUCAGGAGUUUUCUCCUGCAAACUCAACAGCUCGCAGUCAAG”, the binding signal (log2 fold change) was 0.236.
For “GGUCACGUCUCAAUCAACUCUUCCUCAGGAGUUUUCUCCUGUUUUCUCAACAGCUCGCAGUCAAG”, the binding signal (log2 fold change) was -0.037.
“GGUCACGUCUCAAUCAACUCUAUCCCCAGGGAAACCCCUGGUUAUCUCAACAGCUCGCAGUCAAG” gave a binding signal (log2 fold change) of -0.0975.
Sequence “GGUCACGUCUCAAUCAACUCAAUUUCAGGAGUUUUCUCCUGUUUACUCAACAGCUCGCAGUCAAG” has a binding signal (log2 fold change) of 0.11.
For “GGUCACGUCUCAAUCAACUCCUUAGAGGGGGGGAAAACCCCUUUGCCCUCGAUAUCAACAGCUCGCAGUCAAG”, the binding signal (log2 fold change) was 0.202.
In the case of “GGUCACGUCUCAAUCAACUCUACUUCCAGGGAAAACCCUGGUUUUCUCAACAGCUCGCAGUCAAG”, the binding signal (log2 fold change) is reported as 0.0483.
“GGUCACGUCUCAAUCAACUCACUAGAGGGGGGGAAAACCCCUUUACCCUCACAUUCAACAGCUCGCAGUCAAG” was tested, and the binding signal (log2 fold change) was -0.428.
“GGUCACGUCUCAAUCAACUCAUCUCCCAGGGAAAUCCCUGGUUUUUUCAACAGCUCGCAGUCAAG” was tested, and the binding signal (log2 fold change) was 0.155.
“GGUCACGUCUCAAUCAACUCAACUCCAGGAGUUUCCUCCUGUUAACUCAACAGCUCGCAGUCAAG” was tested, and the binding signal (log2 fold change) was 0.0588.
With “GGUCACGUCUCAAUCAACUCUUUCUCAGGAGUUUACUCCUGUAUAUUCAACAGCUCGCAGUCAAG” the binding signal (log2 fold change) was 0.355.
“GGUCACGUCUCAAUCAACUCAUUCCCCAGGGAAAUCCCUGGUAUAUUCAACAGCUCGCAGUCAAG” gave a binding signal (log2 fold change) of 0.00583.
Sequence “GGUCACGUCUCAAUCAACUCUUUUCCAGGAGUUUCCUCCUGUAAUCUCAACAGCUCGCAGUCAAG” has a binding signal (log2 fold change) of 0.0714.
Work on “GGUCACGUCUCAAUCAACUCAAUCUCCAGGGAAAACCCUGGCUUAUUCAACAGCUCGCAGUCAAG” yielded a binding signal (log2 fold change) of 0.193.
With “GGUCACGUCUCAAUCAACUCUUUUUCCAGGGAAACCCCUGGUUUACUCAACAGCUCGCAGUCAAG” the binding signal (log2 fold change) was -0.148.
“GGUCACGUCUCAAUCAACUCUUAGGAGGGGGGGAAAACCCCUUUACCCUCAACUUCAACAGCUCGCAGUCAAG” was tested, and the binding signal (log2 fold change) was -0.145.
With “GGUCACGUCUCAAUCAACUCAUCCUCAGGAGUUUUCUCCUGCAAUUUCAACAGCUCGCAGUCAAG” the binding signal (log2 fold change) was 0.0218.
“GGUCACGUCUCAAUCAACUCAUCUUCAGGAGUUUUCUCCUGUAAACUCAACAGCUCGCAGUCAAG” gave a binding signal (log2 fold change) of -0.102.
“GGUCACGUCUCAAUCAACUCCUCAGAGGGGGGGAAAACCCCUUUACCCUCCCAUUCAACAGCUCGCAGUCAAG” gave a binding signal (log2 fold change) of 0.356.
For “GGUCACGUCUCAAUCAACUCUUACGAGGGGGGGAAAACCCCUUUACCCUCCAAUUCAACAGCUCGCAGUCAAG”, the binding signal (log2 fold change) was -0.0842.
“GGUCACGUCUCAAUCAACUCUACAGAGGGGGGGAAAACCCCUUUACCCUCCAAUUCAACAGCUCGCAGUCAAG” was tested, and the binding signal (log2 fold change) was -0.103.
“GGUCACGUCUCAAUCAACUCUUCCUCAGGAGUUUUCUCCUGUUUUUUCAACAGCUCGCAGUCAAG” was tested, and the binding signal (log2 fold change) was 0.00209.
“GGUCACGUCUCAAUCAACUCCUUAGAGGGGGGGAAAACCCCUUUGCCCUCACAUUCAACAGCUCGCAGUCAAG” showed a binding signal (log2 fold change) of 0.115.
Sequence “GGUCACGUCUCAAUCAACUCUAGUCCCAGGGAAAUCCCUGGUAAAUUCAACAGCUCGCAGUCAAG” has a binding signal (log2 fold change) of 0.0264.
“GGUCACGUCUCAAUCAACUCUUUUUCCAGGGAAAUCCCUGGCAUUUUCAACAGCUCGCAGUCAAG” showed a binding signal (log2 fold change) of 0.102.
“GGUCACGUCUCAAUCAACUCUUUCUCCAGGGAAACCCCUGGCUUACUCAACAGCUCGCAGUCAAG” was tested, and the binding signal (log2 fold change) was 0.295.
For “GGUCACGUCUCAAUCAACUCUUAAGAGGGGGGGAAAACCCCUUUACCCUCCAUUUCAACAGCUCGCAGUCAAG”, the binding signal (log2 fold change) was -0.201.
“GGUCACGUCUCAAUCAACUCUUCGUCCAGGGAAACCCCUGGUUUUUUCAACAGCUCGCAGUCAAG” showed a binding signal (log2 fold change) of -0.233.
In the case of “GGUCACGUCUCAAUCAACUCUACUCCCAGGGAAAGCCCUGGCAAAUUCAACAGCUCGCAGUCAAG”, the binding signal (log2 fold change) is reported as -0.272.
For “GGUCACGUCUCAAUCAACUCAGUUUCAGGAGUUUCCUCCUGCUAAUUCAACAGCUCGCAGUCAAG”, the binding signal (log2 fold change) was 0.0707.
Sequence “GGUCACGUCUCAAUCAACUCAGUCCCAGGAGUUUCCUCCUGCUUUCUCAACAGCUCGCAGUCAAG” has a binding signal (log2 fold change) of -0.0666.
“GGUCACGUCUCAAUCAACUCAAUCUCCAGGGAAAGCCCUGGCAAUCUCAACAGCUCGCAGUCAAG” was tested, and the binding signal (log2 fold change) was -0.207.
Sequence “GGUCACGUCUCAAUCAACUCAUUUCCAGGAGUUUACUCCUGCUUAUUCAACAGCUCGCAGUCAAG” has a binding signal (log2 fold change) of 0.185.
“GGUCACGUCUCAAUCAACUCUAAAGAGGGGGGGAAAACCCCUUUGCCCUCCAAUUCAACAGCUCGCAGUCAAG” showed a binding signal (log2 fold change) of -0.281.
“GGUCACGUCUCAAUCAACUCUACUCCAGGAGUUUCCUCCUGCUUUCUCAACAGCUCGCAGUCAAG” gave a binding signal (log2 fold change) of -0.135.
Sequence “GGUCACGUCUCAAUCAACUCUUCGUCAGGAGUUUCCUCCUGCAUUUUCAACAGCUCGCAGUCAAG” has a binding signal (log2 fold change) of -0.0657.
Work on “GGUCACGUCUCAAUCAACUCUUUCUCCAGGGAAAUCCCUGGUAAACUCAACAGCUCGCAGUCAAG” yielded a binding signal (log2 fold change) of -0.0145.
“GGUCACGUCUCAAUCAACUCUUCCCCAGGAGUUUUCUCCUGCUAUUUCAACAGCUCGCAGUCAAG” gave a binding signal (log2 fold change) of -0.196.
“GGUCACGUCUCAAUCAACUCAUCGUCCAGGGAAAUCCCUGGUUUUCUCAACAGCUCGCAGUCAAG” gave a binding signal (log2 fold change) of -0.319.
“GGUCACGUCUCAAUCAACUCUACGGCAGGAGUUUACUCCUGGAAAUUCAACAGCUCGCAGUCAAG” showed a binding signal (log2 fold change) of -0.036.
“GGUCACGUCUCAAUCAACUCCUCAGAGGGGGGGAAAACCCCUUUACCCUCCCAAUCAACAGCUCGCAGUCAAG” showed a binding signal (log2 fold change) of -0.00956.
Work on “GGUCACGUCUCAAUCAACUCAUUCCCCAGGGAAAUCCCUGGUAUUCUCAACAGCUCGCAGUCAAG” yielded a binding signal (log2 fold change) of 0.149.
“GGUCACGUCUCAAUCAACUCUUCCUCCAGGGAAACCCCUGGCUAUGUCAACAGCUCGCAGUCAAG” gave a binding signal (log2 fold change) of 0.0825.
In the case of “GGUCACGUCUCAAUCAACUCCUUCGAGGGGGGGAAAACCCCUUUACCCUCAUUCUCAACAGCUCGCAGUCAAG”, the binding signal (log2 fold change) is reported as 0.0866.
For “GGUCACGUCUCAAUCAACUCUUCUUCCAGGGAAAACCCUGGUAAUCUCAACAGCUCGCAGUCAAG”, the binding signal (log2 fold change) was 0.000133.
“GGUCACGUCUCAAUCAACUCAUGUCCAGGAGUUUUCUCCUGCAAUUUCAACAGCUCGCAGUCAAG” was tested, and the binding signal (log2 fold change) was -0.0357.
With “GGUCACGUCUCAAUCAACUCUUUCUCAGGAGUUUACUCCUGCUUUUUCAACAGCUCGCAGUCAAG” the binding signal (log2 fold change) was -0.0823.
“GGUCACGUCUCAAUCAACUCAUUCUCCAGGGAAAACCCUGGUAUACUCAACAGCUCGCAGUCAAG” was tested, and the binding signal (log2 fold change) was 0.146.
“GGUCACGUCUCAAUCAACUCUACUCCAGGAGUUUCCUCCUGUAUUCUCAACAGCUCGCAGUCAAG” showed a binding signal (log2 fold change) of 0.0328.
In the case of “GGUCACGUCUCAAUCAACUCUCUAGAGGGGGGGAAAACCCCUUUACCCUCCAAAUCAACAGCUCGCAGUCAAG”, the binding signal (log2 fold change) is reported as -0.192.
In the case of “GGUCACGUCUCAAUCAACUCAUUCUCAGGAGUUUUCUCCUGUUAACUCAACAGCUCGCAGUCAAG”, the binding signal (log2 fold change) is reported as 0.139.
With “GGUCACGUCUCAAUCAACUCAUCUUCCAGGGAAAGCCCUGGUUAAUUCAACAGCUCGCAGUCAAG” the binding signal (log2 fold change) was -0.252.
Work on “GGUCACGUCUCAAUCAACUCAUUUUCAGGAGUUUUCUCCUGUUUUCUCAACAGCUCGCAGUCAAG” yielded a binding signal (log2 fold change) of 0.0257.
“GGUCACGUCUCAAUCAACUCUACUUCAGGAGUUUACUCCUGCUUUCUCAACAGCUCGCAGUCAAG” showed a binding signal (log2 fold change) of 0.207.
With “GGUCACGUCUCAAUCAACUCUUCCCCCAGGGAAACCCCUGGCUAUCUCAACAGCUCGCAGUCAAG” the binding signal (log2 fold change) was 0.207.
Sequence “GGUCACGUCUCAAUCAACUCAUCCUCCAGGGAAACCCCUGGCAUUUUCAACAGCUCGCAGUCAAG” has a binding signal (log2 fold change) of 0.129.
“GGUCACGUCUCAAUCAACUCAGUCUCAGGAGUUUUCUCCUGCAAAUUCAACAGCUCGCAGUCAAG” showed a binding signal (log2 fold change) of 0.0458.
For “GGUCACGUCUCAAUCAACUCUACAGAGGGGGGGAAAACCCCUUUACCCUCCAAAUCAACAGCUCGCAGUCAAG”, the binding signal (log2 fold change) was 0.212.
Sequence “GGUCACGUCUCAAUCAACUCAUCUCCCAGGGAAAACCCUGGUAAUUUCAACAGCUCGCAGUCAAG” has a binding signal (log2 fold change) of 0.00763.
“GGUCACGUCUCAAUCAACUCUAUCUCAGGAGUUUGCUCCUGCAUAUUCAACAGCUCGCAGUCAAG” was tested, and the binding signal (log2 fold change) was -0.0199.
